# Reference: PubChem BioAssay AID540267 (National Center for Advancing Translational Sciences (NCATS), 2011)
# Out of some 340,000 compounds screened, about 530 (0.16%) were called active. This list was built around the results that the source calls inconclusive (neither active nor inactive); the mix of calls is not that of the screen. Rule as the data show it: active = activity change below about -80%; inconclusive = between about -30% and that limit; inactive = weaker than that.
# Test: Small Molecules that selectively kill Giardia lamblia: qHTS;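 also: parasites exposed to compound for two days anaerobically before the ATP read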
# Conditions: Giardia lamblia trophozoite viability; at 7.66 µM; active compounds read low
# Method in brief: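 Trophozoites 100 cells/well + cpd; 48 hrs, 37 deg C, anaerobic. ATPLite 1-Step added, 15-30 min RT, luminescence read (ATP-based viability).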
# % is scaled to controls: 0 for no effect and ±100 for the full control effect.
row,Structure (SMILES),activity change
1,Cc1ccc(NC(=O)Cc2nc(-c3c[nH]c(C(=O)N4CCCC4)c3)cs2)c(C)c1,inactive: 4.58%
2,C[C@@H]1COC(=O)[C@H](CC(=O)OC(C)(C)C)C/C=C\C[C@@H](CC(=O)N[C@H](CO)Cc2ccccc2)C(=O)N1,inactive: -2.7%
3,CCCC/C=C/C(NC(=O)c1ccc(C(=O)OC)cc1)c1ccccc1 (stereo not given),inconclusive: -47.1% [inhibitor]
4,C(=N\Nc1nc2ccccc2[nH]1)/c1ccc2c(c1)OCO2,inactive: 15%
5,CC(C)c1ccc(C(=O)NC(=S)Nc2ccc3[nH]c(=O)[nH]c3c2)cc1,inconclusive: -30.7% [inhibitor]
6,COc1ccc2nc(-c3ccccc3)[nH]c2c1,inconclusive: -44.6% [inhibitor]
7,O=C(N/N=C/c1ccc([N+](=O)[O-])s1)c1cccc(Br)c1,inconclusive: -49.6% [inhibitor]
8,Cc1ccc(CNC(=O)c2cc(-c3ccccc3C)n(CC3CC(c4cccc([N+](=O)[O-])c4)=NO3)n2)cc1 (stereo not given),inconclusive: -64.6% [inhibitor]
9,Cc1cc(=O)oc2cc(OCC(=O)OCC(=O)Nc3ccc(C(N)=O)cc3)ccc12,inconclusive: -37.7% [inhibitor]
10,CC(=O)Nc1ccc(N2CC(C)(C)C2=O)cc1,inconclusive: -34.2% [inhibitor]
11,CC(C)Cc1nnc(NC(=O)CCC(=O)N2CCN(c3ccc([N+](=O)[O-])cc3)CC2)s1,inactive: 12.6%
12,COc1cccc(CNC(=O)CCC2CCCN(C(=O)CCC(F)(F)F)C2)c1 (stereo not given),inactive: 25.3%
13,Cc1ccc([C@H]2C(C(=O)O)=CC[C@@H](c3ccc(C)cc3)N2S(=O)(=O)c2ccc(C)cc2)cc1,inconclusive: -48.9% [inhibitor]
14,CC(=O)Nc1ccc(C(=O)OCC(=O)N2CCN(C(=O)c3ccco3)CC2)cc1,inconclusive: -37.1% [inhibitor]
15,CC(Nc1cc(N2CCN(S(C)(=O)=O)CC2)ccc1[N+](=O)[O-])c1ccccc1 (stereo not given),inactive: 13.2%
16,COc1cccc2cc(C(=O)N3CC(C)OC(C)C3)c(=O)oc12 (stereo not given),inactive: -11.9%
17,CN1CCN(S(=O)(=O)c2ccc(Cl)c(C(F)(F)F)c2)CC1,inconclusive: -31.8% [inhibitor]
18,O=C(NC(=S)NNC(=O)c1cnccn1)c1ccc(Cl)cc1,inactive: -17%
19,COc1ccc(C(=O)Nc2ccccc2C(=O)Nc2ccccc2C(=O)O)cc1,inconclusive: -34.5% [inhibitor]
20,Cc1cc(C)c(S(=O)(=O)Nc2cccc3cccnc23)c(C)c1,inactive: -9.64%
21,N#Cc1ccc(OCC(=O)NC2CCCCCC2)cc1,inconclusive: -33.2% [inhibitor]
22,Cc1cc(C)nc(N2CCN(c3nc(-c4ccccc4)nc4c3oc3ccccc34)CC2)n1,inconclusive: -30.5% [inhibitor]
23,Cc1ccccc1NC(=S)N=Nc1c(O)n(C)c2ccc(S(=O)(=O)N3CCOCC3)cc12,inactive: -4.63%
24,O=C(Nc1ccc(NC(=O)c2cccs2)c(Cl)c1)c1ccco1,inconclusive: -31.9% [inhibitor]
25,O=C(O)c1cccc(S(=O)(=O)Nc2ccccc2Cc2ccccc2)c1,inconclusive: -38.9% [inhibitor]

row,Structure (SMILES),activity change
1,O=C(CSc1ccsc1[N+](=O)[O-])N1CCN(c2ccccc2)CC1,inconclusive: -52.2% [inhibitor]
2,CCSc1nnc(NC(=O)C2Cc3ccccc3CN2C(=O)c2ccco2)s1 (stereo not given),inactive: 16.7%
3,CCN1CCCC1CNC(=O)c1ccc2c(c1)N(Cc1ccccc1F)C(=O)c1ccccc1S2(=O)=O (stereo not given),inactive: -3.91%
4,O=C(O)c1c(NC(=O)N2CCOCC2)sc2c1CCCC2,inconclusive: -32.6% [inhibitor]
5,CCc1nc2ccccc2nc1N1CCN(S(=O)(=O)c2ccccc2)CC1,inconclusive: -32.8% [inhibitor]
6,NC(=O)C1(C(N)=O)OC1c1ccccc1 (stereo not given),inconclusive: -31.1% [inhibitor]
7,O=C(NC(=S)Nc1ccccc1N1CCCC1)c1ccc([N+](=O)[O-])cc1,inconclusive: -31.4% [inhibitor]
8,Cc1nc2cc(-c3ccc(Cl)cc3)nn2c(NCCN(C)C)c1C,active: -96.2%
9,C/C(CC(=O)Nc1ccc(OCc2ccccc2)cc1)=N\NC(=O)C(=O)Nc1ccc(C)c(Cl)c1,inactive: -15.9%
10,O=C(O)c1cc2ccccc2c(N=Nc2cccnc2)c1O,active: -82.4%
11,O=C(NCC1CCCO1)NC12CC3CC(CC(C3)C1)C2 (stereo not given),inconclusive: -30.8% [inhibitor]
12,CCc1ccc(C(=O)Nc2nc3ccccc3[nH]2)cc1,active: -93.5%
13,CC(C)(CO)NC12CC3CC(CC(C3)C1)C2,inactive: -13%
14,CCN(CC)CC(O)COc1ccccc1C(=O)CCc1ccccc1 (stereo not given),inactive: 3.13%
15,COc1ccc(C(O)c2nc3ccccc3n2C)cc1OC (stereo not given),inactive: -3.65%
16,CC1=CC(C)(C)n2c(O)c(N=NC(N)=S)c3c(C)ccc1c32,inactive: 19.6%
17,O=C(NNC(=O)c1ccccc1[N+](=O)[O-])c1ccc(NS(=O)(=O)c2cccs2)cc1,inactive: 4.01%
18,CCOC(=O)C1=C(COC(=O)/C=C/c2ccco2)NC(=O)NC1C (stereo not given),inconclusive: -34.9% [inhibitor]
19,Cc1nonc1NC(=O)c1oc2ccccc2c1C,inconclusive: -32.8% [inhibitor]
20,O=C(NCCN1CCOCC1)c1ccc(Cl)cc1,inconclusive: -30.2% [inhibitor]
21,Cc1nc(-c2cccc(NC(=O)c3cccc(S(=O)(=O)N4CCCC4)c3)c2)cs1,inactive: -17%
22,O=C(Cc1ccc2c(c1)OCO2)NN=Cc1ccc([N+](=O)[O-])o1,active: -102%
23,C#CCOCCOCCOCCNc1nc(N2CCN(C(=O)Cn3cc(CC(C)O)nn3)CC2)nc(N2CCN(C(=O)[C@H](CCCCN)n3cc(CCCC)nn3)CC2)n1 (stereo not given in full),inconclusive: -30.6% [inhibitor]
24,COC(=O)C(C)Oc1ccc(-c2nccc(-c3ccc(F)cc3)n2)cc1 (stereo not given),inconclusive: -39.2% [inhibitor]
25,c1ccc(-n2cc(CN3CCC(N4CCOCC4)CC3)c(-c3ccc4c(c3)OCO4)n2)cc1,inactive: -9.23%
